Experimental data published in the supplement of paper PMC12217912.
The other results are listed elsewhere or left out. The full chains were built here from the parent and the listed change. Inactive controls read about 0.05.

B1: TEV protease; numbered along this chain (parent)
chain: MGESLFKGPRDYNPISSSICHLTNESDGHTTSLYGIGFGPFIITNKHLFRRNNGTLVVQSLHGVFKVKDTTTLQQHLVDGRDMIIIRMPKDFPPFPQKLKFREPQREERICLVTTNFQTKSMSSMVSDTSCTFPSGDGIFWKHWIQTKDGQCGSPLVSTRDGFIVGIHSASNFTNTNNYFTSVPKNFMELLTNQEAQQWVSGWRLNADSVLWGGHKVFMVKPEEPFQPVKEATQL

Variants of: B1
Test: raw area under fraction-flipped curve 0-4 h after induction (AUC4h, not background-subtracted), DNA-recorder readout of cleavage of the substrate (dimensionless); higher = more cleavage of the substrate by the protease variant
Details: temperature: 34 °C; time window: 0-4 h after rhamnose induction
Protocol: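 In vivo DNA recorder in E. coli TOP10(DE3) ΔrhaA at 34 °C. Each TEVp single-site mutant (parent TEVp 0) is paired with a single-site variant of the 7-mer TEVs (canonical ENLYFQ|S). The substrate sits between flexible linkers in a Bxb1-sfGFP-TEVs-SsrA fusion, so cleavage stabilises Bxb1 and speeds flipping of a recombination array, read by NGS. The value is the raw area under the fraction-flipped curve over 0-4 h after rhamnose induction (AUC4h), with ≥20 reads per time point. It is not background-subtracted; inactive controls average about 0.047.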
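Note: Bxb1 expression induced with 0.2% (w/v) L-rhamnose at OD600 near 0.5, cultures sampled hourly, flipped fraction per protease–substrate barcode pair counted by paired-end Illumina sequencing.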

Variant	area with substrate EALYFQS	area with substrate ECLYFQS	area with substrate EDLYFQS	area with substrate EELYFQS	area with substrate EGLYFQS	area with substrate EHLYFQS	area with substrate EKLYFQS	area with substrate EMLYFQS	area with substrate EPLYFQS	area with substrate EQLYFQS	area with substrate ERLYFQS	area with substrate ESLYFQS	area with substrate ETLYFQS	area with substrate EWLYFQS	area with substrate EFLYFQS	area with substrate EILYFQS	area with substrate EVLYFQS	area with substrate EYLYFQS	area with substrate ELLYFQS
MGESLFKGPRDYNPISLSICHLTNESDGHTTSLYGIGFGPFIITNKHLFRRNNGTLVVQSLHGVFKVKDTTTLQQHLVDGRDMIIIRMPKDFPPFPQKLKFREPQREERICLVTTNFQTKSMSSMVSDTSCTFPSGDGIFWKHWIQTKDGQCGSPLVSTRDGFIVGIHSASNFTNTNNYFTSVPKNFMELLTNQEAQQWVSGWRLNADSVLWGGHKVFMVKPEEPFQPVKEATQL [S17L]	0.128	0.0923	0.128	0.116	0.0818	0.118	0.103	0.103	0.109	0.128	0.0974	0.131	0.119	0.0982					
MGESLFKGPRDYNPISESICHLTNESDGHTTSLYGIGFGPFIITNKHLFRRNNGTLVVQSLHGVFKVKDTTTLQQHLVDGRDMIIIRMPKDFPPFPQKLKFREPQREERICLVTTNFQTKSMSSMVSDTSCTFPSGDGIFWKHWIQTKDGQCGSPLVSTRDGFIVGIHSASNFTNTNNYFTSVPKNFMELLTNQEAQQWVSGWRLNADSVLWGGHKVFMVKPEEPFQPVKEATQL [S17E]	0.124	0.103	0.142	0.11	0.107	0.0926	0.114		0.115	0.136	0.104	0.107	0.126	0.0928	0.114	0.102	0.0989	0.128	
MGESLFKGPRDYNPISHSICHLTNESDGHTTSLYGIGFGPFIITNKHLFRRNNGTLVVQSLHGVFKVKDTTTLQQHLVDGRDMIIIRMPKDFPPFPQKLKFREPQREERICLVTTNFQTKSMSSMVSDTSCTFPSGDGIFWKHWIQTKDGQCGSPLVSTRDGFIVGIHSASNFTNTNNYFTSVPKNFMELLTNQEAQQWVSGWRLNADSVLWGGHKVFMVKPEEPFQPVKEATQL [S17H]	0.13	0.111	0.137	0.179	0.0821	0.13	0.129	0.138	0.133	0.131	0.0877	0.133	0.111	0.107		0.112	0.0968	0.0916	0.0524
MGESLFQGPRDYNPISSSICHLTNESDGHTTSLYGIGFGPFIITNKHLFRRNNGTLVVQSLHGVFKVKDTTTLQQHLVDGRDMIIIRMPKDFPPFPQKLKFREPQREERICLVTTNFQTKSMSSMVSDTSCTFPSGDGIFWKHWIQTKDGQCGSPLVSTRDGFIVGIHSASNFTNTNNYFTSVPKNFMELLTNQEAQQWVSGWRLNADSVLWGGHKVFMVKPEEPFQPVKEATQL [K7Q]	0.144	0.0775			0.105		0.0894	0.0841	0.138	0.111	0.0981	0.0425			0.0932	0.0966	0.105		
MGESLFKGPRDDNPISSSICHLTNESDGHTTSLYGIGFGPFIITNKHLFRRNNGTLVVQSLHGVFKVKDTTTLQQHLVDGRDMIIIRMPKDFPPFPQKLKFREPQREERICLVTTNFQTKSMSSMVSDTSCTFPSGDGIFWKHWIQTKDGQCGSPLVSTRDGFIVGIHSASNFTNTNNYFTSVPKNFMELLTNQEAQQWVSGWRLNADSVLWGGHKVFMVKPEEPFQPVKEATQL [Y12D]	0.11	0.127			0.0983		0.0929			0.108	0.102	0.0932	0.134	0.103	0.0967	0.097	0.0924	0.0935	0.106
MGESLFKGPRDYNSISSSICHLTNESDGHTTSLYGIGFGPFIITNKHLFRRNNGTLVVQSLHGVFKVKDTTTLQQHLVDGRDMIIIRMPKDFPPFPQKLKFREPQREERICLVTTNFQTKSMSSMVSDTSCTFPSGDGIFWKHWIQTKDGQCGSPLVSTRDGFIVGIHSASNFTNTNNYFTSVPKNFMELLTNQEAQQWVSGWRLNADSVLWGGHKVFMVKPEEPFQPVKEATQL [P14S]	0.104	0.0992	0.0827		0.0846	0.108	0.12	0.152	0.111	0.126	0.103	0.0931	0.107	0.106	0.114		0.0971	0.0651	
MGESLFKGPRDYNRISSSICHLTNESDGHTTSLYGIGFGPFIITNKHLFRRNNGTLVVQSLHGVFKVKDTTTLQQHLVDGRDMIIIRMPKDFPPFPQKLKFREPQREERICLVTTNFQTKSMSSMVSDTSCTFPSGDGIFWKHWIQTKDGQCGSPLVSTRDGFIVGIHSASNFTNTNNYFTSVPKNFMELLTNQEAQQWVSGWRLNADSVLWGGHKVFMVKPEEPFQPVKEATQL [P14R]	0.137		0.0824	0.115	0.0898	0.12	0.172		0.112	0.124	0.107	0.112		0.103	0.117				0.111
MGESLFKGMRDYNPISSSICHLTNESDGHTTSLYGIGFGPFIITNKHLFRRNNGTLVVQSLHGVFKVKDTTTLQQHLVDGRDMIIIRMPKDFPPFPQKLKFREPQREERICLVTTNFQTKSMSSMVSDTSCTFPSGDGIFWKHWIQTKDGQCGSPLVSTRDGFIVGIHSASNFTNTNNYFTSVPKNFMELLTNQEAQQWVSGWRLNADSVLWGGHKVFMVKPEEPFQPVKEATQL [P9M]	0.0937	0.101	0.139				0.112	0.127	0.126	0.147		0.107			0.109		0.0046		0.113
MGESLFKGWRDYNPISSSICHLTNESDGHTTSLYGIGFGPFIITNKHLFRRNNGTLVVQSLHGVFKVKDTTTLQQHLVDGRDMIIIRMPKDFPPFPQKLKFREPQREERICLVTTNFQTKSMSSMVSDTSCTFPSGDGIFWKHWIQTKDGQCGSPLVSTRDGFIVGIHSASNFTNTNNYFTSVPKNFMELLTNQEAQQWVSGWRLNADSVLWGGHKVFMVKPEEPFQPVKEATQL [P9W]	0.129	0.0861	0.117	0.127		0.0997		0.133		0.127	0.0988	0.111				0.0912		0.111	0.1
MGSSLFKGPRDYNPISSSICHLTNESDGHTTSLYGIGFGPFIITNKHLFRRNNGTLVVQSLHGVFKVKDTTTLQQHLVDGRDMIIIRMPKDFPPFPQKLKFREPQREERICLVTTNFQTKSMSSMVSDTSCTFPSGDGIFWKHWIQTKDGQCGSPLVSTRDGFIVGIHSASNFTNTNNYFTSVPKNFMELLTNQEAQQWVSGWRLNADSVLWGGHKVFMVKPEEPFQPVKEATQL [E3S]	0.135	0.129	0.179	0.188	0.127	0.122	0.112		0.136	0.137	0.111	0.154			0.1	0.141	0.149		
MGESLFKGPRDYAPISSSICHLTNESDGHTTSLYGIGFGPFIITNKHLFRRNNGTLVVQSLHGVFKVKDTTTLQQHLVDGRDMIIIRMPKDFPPFPQKLKFREPQREERICLVTTNFQTKSMSSMVSDTSCTFPSGDGIFWKHWIQTKDGQCGSPLVSTRDGFIVGIHSASNFTNTNNYFTSVPKNFMELLTNQEAQQWVSGWRLNADSVLWGGHKVFMVKPEEPFQPVKEATQL [N13A]	0.111	0.116	0.121			0.0949	0.104	0.0997	0.125	0.118	0.0898	0.103	0.0941		0.131	0.0788	0.0989	0.0978	0.0937
MGESLFKGPRDYDPISSSICHLTNESDGHTTSLYGIGFGPFIITNKHLFRRNNGTLVVQSLHGVFKVKDTTTLQQHLVDGRDMIIIRMPKDFPPFPQKLKFREPQREERICLVTTNFQTKSMSSMVSDTSCTFPSGDGIFWKHWIQTKDGQCGSPLVSTRDGFIVGIHSASNFTNTNNYFTSVPKNFMELLTNQEAQQWVSGWRLNADSVLWGGHKVFMVKPEEPFQPVKEATQL [N13D]	0.146	0.0879	0.0957	0.108	0.0901		0.112	0.0972		0.135	0.122	0.0766				0.0824	0.0997		0.0952
MGESLFKRPRDYNPISSSICHLTNESDGHTTSLYGIGFGPFIITNKHLFRRNNGTLVVQSLHGVFKVKDTTTLQQHLVDGRDMIIIRMPKDFPPFPQKLKFREPQREERICLVTTNFQTKSMSSMVSDTSCTFPSGDGIFWKHWIQTKDGQCGSPLVSTRDGFIVGIHSASNFTNTNNYFTSVPKNFMELLTNQEAQQWVSGWRLNADSVLWGGHKVFMVKPEEPFQPVKEATQL [G8R]	0.12							0.116								0.0217			
MEESLFKGPRDYNPISSSICHLTNESDGHTTSLYGIGFGPFIITNKHLFRRNNGTLVVQSLHGVFKVKDTTTLQQHLVDGRDMIIIRMPKDFPPFPQKLKFREPQREERICLVTTNFQTKSMSSMVSDTSCTFPSGDGIFWKHWIQTKDGQCGSPLVSTRDGFIVGIHSASNFTNTNNYFTSVPKNFMELLTNQEAQQWVSGWRLNADSVLWGGHKVFMVKPEEPFQPVKEATQL [G2E]	0.103	0.11	0.103	0.102	0.0769			0.104	0.117	0.102		0.077		0.0922		0.117	0.0871		0.104
MGESLFKGPRMYNPISSSICHLTNESDGHTTSLYGIGFGPFIITNKHLFRRNNGTLVVQSLHGVFKVKDTTTLQQHLVDGRDMIIIRMPKDFPPFPQKLKFREPQREERICLVTTNFQTKSMSSMVSDTSCTFPSGDGIFWKHWIQTKDGQCGSPLVSTRDGFIVGIHSASNFTNTNNYFTSVPKNFMELLTNQEAQQWVSGWRLNADSVLWGGHKVFMVKPEEPFQPVKEATQL [D11M]	0.0867	0.0826	0.0708	0.071	0.0111	0.0574	0.0667	0.0679	0.0735	0.0614	0.0771	0.0643	0.0429			0.0665	0.0708	0.0647	
MGESLFKGPRDYNPYSSSICHLTNESDGHTTSLYGIGFGPFIITNKHLFRRNNGTLVVQSLHGVFKVKDTTTLQQHLVDGRDMIIIRMPKDFPPFPQKLKFREPQREERICLVTTNFQTKSMSSMVSDTSCTFPSGDGIFWKHWIQTKDGQCGSPLVSTRDGFIVGIHSASNFTNTNNYFTSVPKNFMELLTNQEAQQWVSGWRLNADSVLWGGHKVFMVKPEEPFQPVKEATQL [I15Y]	0.105	0.0931		0.124	0.0936	0.108	0.0932	0.101	0.0784	0.134	0.105	0.115		0.0642		0.0993	0.0856		0.0824
MGESLFKGPRDYNPASSSICHLTNESDGHTTSLYGIGFGPFIITNKHLFRRNNGTLVVQSLHGVFKVKDTTTLQQHLVDGRDMIIIRMPKDFPPFPQKLKFREPQREERICLVTTNFQTKSMSSMVSDTSCTFPSGDGIFWKHWIQTKDGQCGSPLVSTRDGFIVGIHSASNFTNTNNYFTSVPKNFMELLTNQEAQQWVSGWRLNADSVLWGGHKVFMVKPEEPFQPVKEATQL [I15A]	0.0901		0.126	0.0761	0.0848		0.0964	0.0764	0.0982	0.116	0.108	0.094		0.0974		0.103	0.0847	0.109	0.0876
MGESLFKGPRDYNPWSSSICHLTNESDGHTTSLYGIGFGPFIITNKHLFRRNNGTLVVQSLHGVFKVKDTTTLQQHLVDGRDMIIIRMPKDFPPFPQKLKFREPQREERICLVTTNFQTKSMSSMVSDTSCTFPSGDGIFWKHWIQTKDGQCGSPLVSTRDGFIVGIHSASNFTNTNNYFTSVPKNFMELLTNQEAQQWVSGWRLNADSVLWGGHKVFMVKPEEPFQPVKEATQL [I15W]	0.108	0.0464		0.11	0.0732	0.0993	0.099	0.101		0.095	0.0723	0.0862	0.0706	0.0916		0.105	0.0855	0.105	
